Test results published in PubChem BioAssay AID1159614 (National Center for Advancing Translational Sciences (NCATS), 2016).
Among all 45,000 compounds or so, about 65 (0.1%) were called active. Calls follow the shape of the dose curve; as a rule, active = well fitted activation curve with a large enough effect; inconclusive = small, poorly fitted or top-dose-only effect; inactive = no such curve, though single readings can be large or run the other way. The list shows a part of the results.

Target: Galactocerebrosidase (Homo sapiens) (UniProt P54803)
Assay: A Novel Cell-Based Assay to Identify Small Molecules for B -Galactocerebrosidase; also: 0% is about no effect; nearly all actives have a fitted effect of over 65% in size
Conditions: 145M-Twi-hGALC-G270D cells, HMU-beta-Gal fluorescence, 48 h; series mostly up to 57.5 µM; activation: at the top concentration
Procedure, shortened: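 qHTS, 1536-well; 145M-Twi-hGALC-G270D cells (WT line also made) in DMEM/F12 + 10% FBS; compound incubation on live cells; HMU-β-gal 0.1 mM final, pH 5.2, NaTC; carbonate stop; fluorescence increase = enhanced residual activity.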

Sequence of UniProt P54803 (P54803 whole entry, looked up): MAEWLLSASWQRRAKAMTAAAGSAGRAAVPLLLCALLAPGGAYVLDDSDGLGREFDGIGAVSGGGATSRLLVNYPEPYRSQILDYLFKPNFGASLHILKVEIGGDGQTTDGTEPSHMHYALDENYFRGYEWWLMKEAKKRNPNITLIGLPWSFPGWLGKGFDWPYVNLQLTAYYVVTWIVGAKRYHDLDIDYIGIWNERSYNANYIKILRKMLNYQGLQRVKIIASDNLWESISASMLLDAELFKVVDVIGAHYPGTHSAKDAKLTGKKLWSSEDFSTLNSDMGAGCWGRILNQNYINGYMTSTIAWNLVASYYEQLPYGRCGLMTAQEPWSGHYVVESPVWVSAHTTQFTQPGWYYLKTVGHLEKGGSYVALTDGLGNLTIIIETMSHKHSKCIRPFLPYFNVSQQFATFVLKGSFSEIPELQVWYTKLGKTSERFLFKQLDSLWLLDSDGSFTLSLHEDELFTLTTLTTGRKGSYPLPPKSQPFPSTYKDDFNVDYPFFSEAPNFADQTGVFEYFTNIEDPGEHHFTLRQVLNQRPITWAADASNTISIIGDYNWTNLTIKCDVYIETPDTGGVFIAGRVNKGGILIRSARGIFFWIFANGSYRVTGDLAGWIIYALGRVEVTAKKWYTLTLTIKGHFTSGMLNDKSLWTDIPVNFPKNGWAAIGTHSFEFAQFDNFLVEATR

activation, inactive:
COc1cccc(-n2cc(C(=O)NCc3cccc(Cl)c3)c3ccccc3c2=O)c1 2.08%
COc1ccc(S(=O)(=O)Nc2cc3c(cc2NCc2ccccc2)n(C)c(=O)n3C)cc1OC -14.1%
CCOC(=O)Cn1c(=O)n(C2CCCCC2)c2nc(-c3ccc(Cl)cc3)nc(C(N)=O)c21 -6.64%
CC(C)c1ccc(S(=O)(=O)Nc2ccc3oc4c(c3c2)C(=O)CC(C)(C)C4)cc1 6.25%
Cc1ccc2c(=O)cc(CSc3nnc(-c4ccccc4)n3C)[nH]c2c1C 2.26%
Cc1cc(-c2nc3ncccc3o2)ccc1NC(=O)c1ccc(Br)cc1 -7.96%
Cc1cc(C)c(NC(=O)c2cc3c(=O)n4ccccc4nc3n2C)c(C)c1 5%
C[C@@H](O)[C@H]1C(=O)N2C(C(=O)O)=C(SCCN=CN)C[C@H]12 -12.4%
COc1ccc(NC(=O)c2c(-c3ccccc3)c(-c3ccccc3)nn(C)c2=O)c(OC)c1 -8.23%
CSc1ccc(CNC(=O)c2ccccc2NC(=O)c2nsc3ccccc23)cc1 -10.8%
CC(=O)N1c2ccccc2C(=O)C1N1CCN(c2ccccc2)CC1 (configuration not stated) -12.1%
COc1ccc(OCC(=O)NCC(c2ccc(Cl)cc2)N2CCCCC2)cc1 (configuration not stated) -11%
CN(CC1(C)CCCO1)S(=O)(=O)c1ccc(Cl)c(S(N)(=O)=O)c1 (configuration not stated) -7.43%
Cc1c(Cl)cccc1NC(=O)c1ccc(C(=O)Nc2cccc(Cl)c2C)cc1 -10%
COCCCNC(=O)c1sc2nc(C)c(C(=O)Nc3ccc(C)cc3C)c(-c3ccc(Cl)cc3)c2c1N -15.4%
CC(=O)N1CCc2c(sc3c2c(=O)n(-c2ccccc2C)c(=O)n3Cc2cccc(F)c2)C1 -12.9%
COc1cc(OC)cc(-n2nnc(-c3nc(-c4ccccc4Cl)no3)c2N)c1 -11.4%
CC1CCN(C(=O)c2cnn(-c3cccc(Cl)c3)c2C2CCN(C(=O)OC(C)(C)C)CC2)CC1 -16.9%
CC(=O)Nc1ccc(S(=O)(=O)N2CCC(Oc3ccc(-n4cnnn4)cc3)CC2)cc1 -4.32%
O=C(c1ccccc1Cl)n1nc(-c2cccnc2)nc1NCc1ccc(F)cc1 -10.8%
CCCCOc1ccc(C(=O)N(Cc2ccc(C(C)C)cc2)C2CCS(=O)(=O)C2)cc1 (configuration not stated) -4.74%
COC(=O)c1scc(-c2ccccc2)c1S(=O)(=O)Nc1cccc(C)c1C -3.13%
Cc1ccccc1Nc1c(-c2ccc(N3CCOCC3)cc2)nc2ncccn12 -10.9%
O=C(Nc1ccccc1-c1nc2ccccc2s1)c1cc(Cl)cc(Cl)c1 -20.9%
Cc1c(CNC(C)CCc2ccccc2)c(C(=O)O)c(C)n1Cc1ccc(F)cc1Cl (configuration not stated) -25.5%
COC(=O)c1cc2sc(C)cc2n1Cc1ccc(Br)cc1F 2.42%
COc1ccc(C2=NN(CC(=O)NCCCN(C)c3ccccc3)C(=O)CC2)cc1 25%
COc1ccc(N2CCN(C3=NS(=O)(=O)C(c4cccc(Br)c4)=C3C)CC2)cc1 4.23%
Cc1cc(C)c(NC(=O)CCc2c(C)nc3c(c(C)nn3C(C)(C)C)c2C)c(C)c1 5.26%
CCOC(=O)c1ccc(NC(=O)CCc2c(C)nc3nc[nH]n3c2=O)cc1 -21.3%
CCCSCCCNC(=O)c1ccc2c(c1)sc1nc(-c3ccc(OCC)cc3)cn12 -5.47%
Cc1ccc2cc(CN(C(=O)c3cccc(Cl)c3)c3ccccc3)c(=O)[nH]c2c1 -20.1%
COc1ccccc1NC(=O)c1oc2ccccc2c1NC(=O)C1CCCCC1 -7.52%
CC1C(=O)N2CCCc3cc(S(=O)(=O)N4CCC(C(N)=O)CC4)cc1c32 (configuration not stated) -20.7%
Cc1ccccc1CSc1nc2ccsc2c(=O)n1CCC(C)C -8.63%
CN1c2ccc(Cl)cc2-c2nc(SCC(=O)NCc3ccccc3)ncc2S1(=O)=O -5.69%
O=C(NCc1ccccc1F)C1CCN(c2nn3cc(-c4ccc(F)cc4)nc3s2)CC1 -4.78%
COc1ccccc1Nc1nn2c(=O)c3ccc(C(=O)NCCC4=CCCCC4)cc3nc2s1 -25.4%
COc1cccc(CNC(=O)c2cnc(N3CCCCC3)c3ccccc23)c1 -11.7%
O=C(Nc1ccccc1C(F)(F)F)N1CCC(CN2CCc3ccccc3C2)CC1 -7.89%
Cc1cc(C)cc(-n2c(SCC(N)=O)nc3c([nH]c4ccccc43)c2=O)c1 -13.4%
O=C(NC1CC(=O)N(c2cccc(F)c2)C1)c1cc2ccccc2o1 (configuration not stated) -8.5%
COc1ccc(C)cc1NC(=O)C(Cc1ccccc1)NS(=O)(=O)c1cccs1 (configuration not stated) -26.7%
Cc1ccc(Cn2c(C(=O)O)c(CNC3CCCC3)c3ccc(C)cc32)cc1 5.69%
Cc1ccc(OCc2ccc(-c3nc(C#N)c(NCc4ccccc4Cl)o3)o2)cc1 -16.3%
COc1ccc(Nc2ncnc3c2cnn3-c2ccc(C)cc2)cc1Cl -17%
CCC(=O)N1CCc2cc(Br)cc(S(=O)(=O)CCC(=O)NCc3cccc(OC)c3)c21 -34.9%
Cc1ccc2nc(-c3cccc(NC(=O)c4cccc5ccccc45)c3)oc2c1 -23.5%
COCCNc1oc(/C=C/c2ccc(F)cc2)nc1C#N -13.3%
CCOC(=O)c1ccc(CN(Cc2ccccc2C)S(=O)(=O)c2ccc(F)c(C)c2)cc1 -15.3%
Cc1ccc(CNC(=O)CCCn2c(=O)[nH]c3ccc(Br)cc3c2=O)cc1 -13.8%
Cc1cccc(Cn2cc(S(=O)(=O)c3cccc(C)c3)c(=O)c3cc(F)c(N4CCOCC4)cc32)c1 -4.68%
COc1ccc2nc(C)cc(Nc3ccc(Cl)c(Cl)c3)c2c1 -1.47%
CCOc1ccc(-n2c(SCC(=O)NC3CCCCC3)nc3c([nH]c4ccccc43)c2=O)cc1 -21.2%
Cc1ccc(-n2c(=O)c3c(cnn3C)n(CC(=O)Nc3ccccc3C)c2=O)cc1 -13.3%
O=C(Oc1ccc(Cl)cc1)c1cc(-c2ccc3c(c2)OCCO3)on1 -7.96%
O=C(Cn1c(=O)oc2cc(S(=O)(=O)N3CCCCC3)ccc21)NCc1ccc(Cl)cc1 -41%
CCCCn1c(=NC(=O)c2cc3ccccc3o2)c(C(=O)OCC)cc2c(=O)n3ccccc3nc21 -12.4%
CCn1c(=O)c2cc(C(=O)NCCCN3CCC(C)CC3)sc2c2ccccc21 -16.3%
COC(=O)c1ccccc1NC(=O)c1ccc2nc(CCc3ccccc3)oc2c1 3.59%
CCN(CC)CCNC(=O)Cn1nc(C)c2c(C)n(-c3ccccc3)nc2c1=O -17.1%
Cc1cccc(N2CCN(S(=O)(=O)c3ccc4c(c3)CC(=O)N4C)CC2)c1C -6.46%
COc1ccc(Cn2ccnc2SCC(=O)NCc2ccco2)cc1 -19.3%
COc1ccc(-c2onc(C)c2C)cc1S(=O)(=O)NCC1CCN(Cc2cc(C)ccc2C)CC1 -3.02%
Cc1ccc(Cl)cc1NC(=O)CSc1nc2ccccc2nc1Cc1ccccc1 -1.67%
COc1cccc(-c2noc(COc3ccccc3Cl)n2)c1 -17%
COc1ccc(CC2C(=O)Nc3ccc(Br)cc32)cc1OC (configuration not stated) -15.9%
O=C(Nc1ccc(F)c(Cl)c1)C1CCCN(c2cnccn2)C1 (configuration not stated) -8.41%
COc1ccc(NC(=O)CCc2c(C)nc3nc(CNC(=O)OC(C)(C)C)nn3c2C)cc1OC 3.82%
COc1ccc(S(=O)(=O)NCC(c2ccco2)N2CCN(c3ccc(F)cc3)CC2)cc1C (configuration not stated) -14.6%
COc1cccc2cc(C(=O)NCCc3c(C)[nH]c4ccc(F)cc34)c(=O)oc12 -18.2%
CC1CCN(S(=O)(=O)c2ccc3c(ccn3CCC(=O)NCc3ccc(N(C)C)cc3)c2)CC1 -9.39%
CC(=O)N1CCCC1c1nc2ccccc2n1Cc1ccccc1C (configuration not stated) -24.8%
CCc1ccccc1NC(=O)N1CCN(C(=O)c2nsc3ccccc23)CC1 4.92%
O=C(NCCc1ccccc1)C(=O)NCC(c1ccc2c(c1)OCO2)N1CCOCC1 (configuration not stated) -3.66%
COc1cc(NC(=O)CC(C)n2nc(C)cc2C)cc(OC)c1 (configuration not stated) -13.5%
CCS(=O)(=O)N1CCc2cc(C(=O)NCCc3ccc(OC)cc3)ccc21 -2.17%
CC1CCN(S(=O)(=O)c2nnc(NC(=O)c3cccc(Br)c3)s2)CC1 -20.7%
CCNc1nc(NC(C)(C)C)nc(Oc2ccc(=O)n(C)n2)n1 -2.08%
COc1ccc(Cl)cc1NC(=O)CSc1cn(CC(=O)N2CCCCCC2)c2ccccc12 -50.6%
CCOc1ccccc1C(=O)N(Cc1ccccc1F)C1CCS(=O)(=O)C1 (configuration not stated) -15.6%
Cc1ccc(-c2nnc3ccccc3c2C(=O)Nc2ccccc2F)cc1 -6.01%
Cc1ccc(NC(=O)Cn2c(=O)n(CCC(=O)NCc3ccccc3Cl)c(=O)c3ccccc32)cc1 7.28%
COc1cc(NC(=O)C(CCSC)NS(=O)(=O)c2ccc3c(c2)oc(=O)n3C)cc(OC)c1 (configuration not stated) -6.53%
COc1ccc(NC(=O)c2c(NCc3cccc(OC)c3)sc3c2CCCC3)cc1 -17.3%
CC(C)(C)c1ccc(C(=O)N2CCC(c3nc4ccccc4o3)CC2)cc1 -3.66%
O=C(CCC1N=C2c3ccccc3N=C(SCc3ccccc3F)N2C1=O)NCc1ccc(F)cc1 (configuration not stated) -17.4%
Cc1ccc2occ(CC(=O)N(Cc3ccc(C(C)C)cc3)C3CCS(=O)(=O)C3)c2c1 (configuration not stated) -15.1%
CCN1CCc2nc3sc(C(=O)c4ccc(F)cc4)c(N)c3cc2C1 -3.99%
Cc1ccc(-n2c(=O)c3c(c4cc(C)ccc4n3C)n(CC(=O)NCc3ccccc3)c2=O)cc1 2.68%
COc1ccccc1NC(=O)CSc1nc(-c2ccccc2F)nc2cc(=O)[nH]n12 -4.33%
COc1ccc(CCNc2nc3c(-c4cccc(C)c4)nnn3c3ccccc23)cc1OC 0.878%
COc1ccc(-c2onc(C)c2C)cc1S(=O)(=O)NCC1CCN(Cc2cccc(F)c2)CC1 -9.2%
CC1=C(c2ccc(Cl)cc2)S(=O)(=O)N=C1N1CCC(C(=O)NCc2ccccc2F)CC1 -1.84%
CCc1ccc2oc(C(=O)Nc3ccccc3C(=O)OC)cc(=O)c2c1 -10.8%
CC(CCc1ccc(O)cc1)NCCc1ccc(O)c(O)c1 (configuration not stated) -16.5%
CCOc1ccccc1CNC(=O)c1cccn1-c1nnc(N2CCCC2)s1 -3.16%
